Results from a collection of fitness landscapes (doi:10.1126/science.1257360).
The list shows a part of the results.

B1: PhoQ; a variant is named by its letters at X, in order, P23837 (parent)
chain: MKKLLRLFFPLSLRVRFLLATAAVVLVLSLAYGMVALIGYSVSFDKTTFRLLRGESNLFYTLAKWENNKLHVELPENIDKQSPTMTLIYDENGQLLWAQRDVPWLMKMIQPDWLKSNGFHEIEADVNDTSLLLSGDHSIQQQLQEVREDDDDAEMTHSVAVNVYPATSRMPKLTIVVVDTIPVELKSSYMVWSWFIYVLSANLLLVIPLLWVAAWWSLRPIEALAKEVRELEEHNRELLNPATTRELTSLVRNLNRLLKSERERYDKYRTTLTDLTHSLKTPLXXLQXXLRSLRSEKMSVSDAEPVMLEQISRISQQIGYYLHRASMRGGTLLSRELHPVAPLLDNLTSALNKVYQRKGVNISLDISPEISFVGEQNDFVEVMGNVLDNACKYCLEFVEISARQTDEHLYIVVEDDGPGIPLSKREVIFDRGQRVDTLRPGQGVGLAVAREITEQYEGKIVAGESMLGGARMEVIFGRQHSAPKDE

Variants of: B1
Experiment: enrichment ratio after two sorts for PhoP signalling (ratio (wild type AVST 3.29)); higher = more functional
Conditions: with PhoP (E. coli)

Variant	enrichment ratio
LTKP	≤ 0.25
DSLS	≤ 0.25
SCSG	20.2
DCQT	≤ 0.25
GPSF	≤ 0.25
QILM	≤ 0.25
IRSY	≤ 0.25
VYVF	≤ 0.25
CLMC	≤ 0.25
KDVK	≤ 0.25
ECNH	≤ 0.25
EYYL	≤ 0.25
HDEI	≤ 0.25
ISDT	≤ 0.25
LQTM	≤ 0.25
NRIT	≤ 0.25
RWQD	≤ 0.25
FRFH	≤ 0.25
GCER	≤ 0.25
NKDT	≤ 0.25
IIFV	≤ 0.25
DRIW	≤ 0.25
RTQP	≤ 0.25
HTQL	≤ 0.25
PLCQ	≤ 0.25
DERI	≤ 0.25

Variant	enrichment ratio
SRLN	≤ 0.25
DRGH	≤ 0.25
VDMQ	≤ 0.25
NYVI	≤ 0.25
NEAM	≤ 0.25
VMIW	≤ 0.25
KDPT	≤ 0.25
DKME	≤ 0.25
DQTD	≤ 0.25
PCER	≤ 0.25
WQSN	≤ 0.25
EIDH	≤ 0.25
DTAH	≤ 0.25
VKHS	≤ 0.25
LCND	≤ 0.25
NAIL	≤ 0.25
KQSE	≤ 0.25
HQDI	≤ 0.25
QFQH	≤ 0.25
PVSS	≤ 0.25
MPGI	1.54
FVRA	≤ 0.25
IRYL	≤ 0.25
FQME	≤ 0.25
MQLF	2.66
PNCL	≤ 0.25

Variant	enrichment ratio
MEFP	≤ 0.25
VHEM	≤ 0.25
PVMM	≤ 0.25
NYNW	≤ 0.25
EMSS	≤ 0.25
YKAF	≤ 0.25
GYDD	≤ 0.25
IDCD	≤ 0.25
EYID	≤ 0.25
EHGN	4.25
ERYV	≤ 0.25
VGWW	≤ 0.25
SQVW	≤ 0.25
TKWP	≤ 0.25
LEPT	≤ 0.25
ENIL	≤ 0.25
TTLP	≤ 0.25
EQRN	≤ 0.25
WSEH	≤ 0.25
HKGA	≤ 0.25
YDPM	≤ 0.25
AMHK	≤ 0.25
VVAP	≤ 0.25
NDKM	≤ 0.25
YNMY	≤ 0.25
FLCF	≤ 0.25

Variant	enrichment ratio
CSYS	≤ 0.25
PPAH	≤ 0.25
QNSA	≤ 0.25
IQND	≤ 0.25
SVRP	≤ 0.25
GDKK	≤ 0.25
NERR	≤ 0.25
VNYS	≤ 0.25
MVEK	≤ 0.25
FVAQ	≤ 0.25
LFIN	≤ 0.25
YVYK	≤ 0.25
DMMF	≤ 0.25
KFLD	≤ 0.25
TMIS	≤ 0.25
RPMA	≤ 0.25
FINL	≤ 0.25
AMTL	4.39
FCNK	≤ 0.25
YYML	≤ 0.25
YPLK	≤ 0.25
SSGD	≤ 0.25
HSEI	≤ 0.25
MPDN	≤ 0.25
FMHE	≤ 0.25
LIAK	≤ 0.25

Variant	enrichment ratio
KALH	≤ 0.25
LEIA	≤ 0.25
HATI	≤ 0.25
PMDK	≤ 0.25
KPPQ	≤ 0.25
SWDD	≤ 0.25
PTEI	≤ 0.25
SMRM	≤ 0.25
TMCQ	3.61
KSHD	≤ 0.25
MMPQ	≤ 0.25
PGEP	≤ 0.25
RCPA	≤ 0.25
PLGP	≤ 0.25
FLCK	≤ 0.25
WPSG	≤ 0.25
YYKA	≤ 0.25
KFLK	≤ 0.25
HAFY	≤ 0.25
NILP	≤ 0.25
TRLE	≤ 0.25
DQCG	≤ 0.25
NSKD	≤ 0.25
NFKW	≤ 0.25
ECNN	≤ 0.25
VLTV	≤ 0.25

Variant	enrichment ratio
VMKN	≤ 0.25
DAYM	≤ 0.25
ANHN	≤ 0.25
TGLC	10
MPKL	≤ 0.25
DIMV	≤ 0.25
HCSA	≤ 0.25
LSYI	8.98
ATMF	16
FVRE	≤ 0.25
IKWI	≤ 0.25
SIKL	≤ 0.25
KVLL	≤ 0.25
KCTL	≤ 0.25
FKRT	≤ 0.25
VERN	≤ 0.25
VKPA	≤ 0.25
VFWS	≤ 0.25
TAVT	≤ 0.25
YPDS	≤ 0.25
YQNA	14.6
SLMQ	11.8
GFRN	≤ 0.25
